# Assay results published in the supplement of paper PMC6531468.
# The other results are listed elsewhere or left out. Values come from read counts of a selection and are noisy. Each score is taken over the longer molecules that contain the sequence shown.
# Assays:
# Assay in all cases: 6-mer SELEX enrichment z-score vs GST control; IMP3 is the RNA-binding protein IGF2BP3; higher = more enriched by binding
# IMP3 KH1-4 = conditions: construct: KH1-4 (164-579); SELEX round: R4
# Protocol: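 SELEX-seq with GST-tagged IMP3 KH1-4 (Pro164-Lys579) and an N40 RNA pool, round 4. 6-mer z-score of sequence-tag enrichment normalised to the corresponding GST SELEX round; RNA k-mers written as DNA (T for U).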
# IMP3 RRM1-2 = conditions: construct: RRM1-2 (1-163); SELEX round: R2
# Protocol: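 SELEX-seq with GST-tagged IMP3 RRM1-2 (Met1-Asn163) and an N40 RNA pool, round 2. 6-mer enrichment z-score normalised to GST SELEX. RNA written as DNA (T = U).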
# IMP3 full-length = IMP3 full-length (UniProt O00425); conditions: construct: FL IMP3 (1-579); SELEX round: R4
# Protocol: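 SELEX-seq with GST-tagged full-length IMP3 and an N40 RNA pool, round 4. Each 6-mer is scored as an enrichment z-score of sequence tags containing it, normalised to the matching GST SELEX round. RNA written as DNA (T = U).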
# IMP3 KH1-2 = conditions: construct: KH1-2 (164-376); SELEX round: R4
# Protocol: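 SELEX-seq with GST-tagged IMP3 KH1-2 (Pro164-Phe376) and an N40 RNA pool, round 4 (stringent 300/600 mM KCl washes). 6-mer z-score of sequence-tag enrichment normalised to the corresponding GST SELEX round; RNA k-mers written as DNA (T for U).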
# IMP3 KH3-4 = conditions: construct: KH3-4 (377-579); SELEX round: R4
# Protocol: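 SELEX-seq with GST-tagged IMP3 KH3-4 (Pro377-Lys579) and an N40 RNA pool, round 4. 6-mer z-score of sequence-tag enrichment normalised to the corresponding GST SELEX round; RNA k-mers written as DNA (T for U).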
# IMP3 KH1-4, sequence (chain, as listed by the source): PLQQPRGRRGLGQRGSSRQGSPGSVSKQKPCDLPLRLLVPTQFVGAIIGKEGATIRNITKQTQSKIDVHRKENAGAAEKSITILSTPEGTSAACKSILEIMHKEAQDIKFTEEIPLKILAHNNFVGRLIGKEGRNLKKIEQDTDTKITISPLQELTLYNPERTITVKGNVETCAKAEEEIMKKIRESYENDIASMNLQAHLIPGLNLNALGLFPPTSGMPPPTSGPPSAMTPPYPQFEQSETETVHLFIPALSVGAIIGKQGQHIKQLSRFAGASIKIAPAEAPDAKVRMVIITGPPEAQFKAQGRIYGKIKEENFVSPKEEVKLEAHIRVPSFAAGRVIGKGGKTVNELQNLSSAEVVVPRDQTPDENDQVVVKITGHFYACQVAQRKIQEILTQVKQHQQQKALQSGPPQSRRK
# IMP3 KH1-2, sequence (chain, as listed by the source): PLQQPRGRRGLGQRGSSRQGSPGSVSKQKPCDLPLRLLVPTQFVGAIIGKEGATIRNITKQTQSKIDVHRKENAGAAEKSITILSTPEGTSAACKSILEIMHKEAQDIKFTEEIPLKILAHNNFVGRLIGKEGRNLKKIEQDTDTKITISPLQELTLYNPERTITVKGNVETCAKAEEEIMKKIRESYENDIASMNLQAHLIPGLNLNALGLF
# IMP3 KH3-4, sequence (chain, as listed by the source): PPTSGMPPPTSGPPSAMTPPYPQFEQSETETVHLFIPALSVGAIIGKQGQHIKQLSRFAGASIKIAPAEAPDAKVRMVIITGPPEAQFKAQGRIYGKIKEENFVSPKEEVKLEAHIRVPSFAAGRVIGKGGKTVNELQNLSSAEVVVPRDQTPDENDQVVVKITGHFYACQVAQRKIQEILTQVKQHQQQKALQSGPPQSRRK
# UniProt O00425, sequence (O00425 whole entry): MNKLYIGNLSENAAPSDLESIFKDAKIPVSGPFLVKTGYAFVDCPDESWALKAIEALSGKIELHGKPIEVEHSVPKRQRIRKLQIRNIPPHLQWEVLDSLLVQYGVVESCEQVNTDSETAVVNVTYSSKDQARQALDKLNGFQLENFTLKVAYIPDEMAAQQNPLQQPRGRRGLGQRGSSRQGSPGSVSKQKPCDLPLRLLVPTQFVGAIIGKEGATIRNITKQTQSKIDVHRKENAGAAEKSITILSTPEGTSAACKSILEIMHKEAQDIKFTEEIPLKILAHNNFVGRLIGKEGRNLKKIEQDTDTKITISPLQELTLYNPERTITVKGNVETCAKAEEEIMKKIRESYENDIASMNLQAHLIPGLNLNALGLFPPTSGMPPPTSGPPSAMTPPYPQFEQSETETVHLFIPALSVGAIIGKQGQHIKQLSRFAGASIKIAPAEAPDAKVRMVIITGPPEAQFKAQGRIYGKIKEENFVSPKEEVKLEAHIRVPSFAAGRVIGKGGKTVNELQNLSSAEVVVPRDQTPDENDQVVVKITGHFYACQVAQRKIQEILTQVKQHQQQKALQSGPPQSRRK
# IMP3 RRM1-2, sequence (chain, as listed by the source): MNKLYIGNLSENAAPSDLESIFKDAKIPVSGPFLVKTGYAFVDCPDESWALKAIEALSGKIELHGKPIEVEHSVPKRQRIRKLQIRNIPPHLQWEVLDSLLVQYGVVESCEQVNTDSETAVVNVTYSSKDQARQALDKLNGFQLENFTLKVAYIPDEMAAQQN
Sequence,6-mer SELEX enrichment z-score (IMP3 KH1-4),6-mer SELEX enrichment z-score (IMP3 RRM1-2),6-mer SELEX enrichment z-score (IMP3 full-length),6-mer SELEX enrichment z-score (IMP3 KH1-2),6-mer SELEX enrichment z-score (IMP3 KH3-4)
TGTATG,0.647,0.05,-0.099,0.359,0.709
TTCAGT,0.782,0.742,0.873,0.721,0.666
TTGTTG,-0.033,0.422,-0.142,-0.071,0.139
GTGATA,0.54,-0.361,-0.209,0.33,0.766
GTAGAT,-0.321,-0.12,-0.363,-0.358,-0.137
CCGAGA,-2.31,-1.56,-1.45,-2.05,-2.08
TTTGTG,0.096,0.26,-0.263,-0.026,0.283
GTCTCC,-0.477,0.384,0.273,-0.308,-0.394
GTGGGC,0.034,0.217,0.421,0.109,0.12
CATACC,-0.47,0.472,0.003,-0.392,-1.04
GTTACC,-0.675,0.03,-0.402,-0.673,-0.782
AACGGT,-0.435,-0.568,-0.455,-0.71,-0.439
CGTTCG,-0.541,0.12,-0.041,-0.516,-0.476
GCAAAC,-0.29,0.599,0.53,-0.299,-0.556
AGACTC,-0.771,-0.345,-0.647,-0.627,-0.787
CGGTTT,-0.085,0.338,-0.105,-0.129,0.107
GAGGCC,0.104,-0.463,0.336,0.156,0.112
TCAGGT,0.14,0.833,0.637,0.103,0.198
TTACCC,-0.879,-0.424,-0.909,-0.879,-1.27
GTTTTA,0.133,0.169,-0.081,0.19,0.474
CGCTAT,0.412,0.117,0.07,0.434,0.418
GAAATT,0.435,-0.898,-0.577,0.378,1.25
AGCTTC,-0.328,0.317,0.046,-0.211,-0.224
AGTTGA,-0.334,-0.31,-0.468,-0.469,-0.245
CGACGA,-1.81,-1.19,-1.08,-1.71,-1.78

Sequence,6-mer SELEX enrichment z-score (IMP3 KH1-4),6-mer SELEX enrichment z-score (IMP3 RRM1-2),6-mer SELEX enrichment z-score (IMP3 full-length),6-mer SELEX enrichment z-score (IMP3 KH1-2),6-mer SELEX enrichment z-score (IMP3 KH3-4)
TGGTAG,-0.076,0.296,0.095,-0.029,0.089
CATAGA,0.797,0.552,0.857,0.744,0.982
AAGTTT,-0.214,-0.045,-0.406,-0.251,0.06
TCGAGG,-0.853,0.113,-0.019,-0.651,-0.531
GCACGG,1.02,0.197,1.71,0.737,0.387
GTTCCC,-0.442,-0.016,-0.443,-0.385,-0.774
CTGAAA,-0.799,-1.34,-1.42,-0.677,-0.631
CATCGA,-0.844,0.306,0.37,-0.942,-1.13
TACGAA,-0.069,-1.01,-0.78,-0.122,0.158
CCCTCA,-0.33,0.744,-0.129,-0.222,-0.824
AATCGT,-0.427,-0.316,-0.438,-0.572,-0.402
GGACGT,-0.695,-0.259,-0.281,-0.592,-0.517
CGAAAT,-0.63,-1.27,-1.04,-0.548,-0.296
GCGTAC,-2.4,-0.101,-0.907,-2.17,-2.12
ACTTAC,0.592,0.003,-0.189,0.738,0.361
CCCATT,0.218,0.067,0.029,0.176,-0.357
CAATCT,0.042,0.644,0.138,0.016,-0.227
ATACCA,-0.141,0.043,-0.497,-0.238,-0.455
GTATTC,-0.352,0.313,-0.2,-0.28,-0.241
ACCTCG,-1.84,-0.279,-0.919,-1.65,-1.8
GTCGAG,-0.539,0.105,0.274,-0.445,-0.207
ATAGAC,0.768,-0.485,0.046,0.77,0.984
GACACT,0.272,0.254,0.199,0.162,-0.02
TCACGC,-0.021,0.897,0.733,0.067,-0.375
GAAGCT,-0.412,-0.447,-0.474,-0.465,-0.34
